Laboratory results as given in PubChem BioAssay AID1645882 (National Center for Advancing Translational Sciences (NCATS), 2021).
Screen size: about 16,000 compounds; about 120 (0.75%) were called active. Roughly 4% stayed inconclusive and do not appear here. Calls follow the shape of the dose curve; as a rule, active = well fitted inhibition curve with a large enough effect; inconclusive = small, poorly fitted or top-dose-only effect; inactive = no such curve, though single readings can be large or run the other way. The list shows a part of the results. More than one record can exist for a structure, and the calls need not agree.

Target: Rap guanine nucleotide exchange factor 3 (Homo sapiens) (UniProt O95398)
Experiment: Validation qHTS for antagonist of cAMP-regulated guanine nucleotide exchange factor 3 (EPAC1); also: nearly all actives have a fitted effect of over 75% in size;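 as to activity change, negative = inhibition: plate controls were DMSO for no effect and ATA control for full effect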
Conditions: EPAC1 Rap1B-BODIPY-GDP exchange, fluorescence; activity change, negative = inhibition: at the top concentration
In short: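 Nucleotide exchange followed as fluorescence loss when BODIPY-GDP leaves Rap1B (480 nm excitation, 540 nm emission), read at 5 min intervals over 30 min. Reaction: 100 nM EPAC1, 250 nM RAP1B-BODIPY-GDP, 50 uM GDP; ATA and DMSO define normalization.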
Potency is read from the fitted curve at half-maximal effect.

Chain of UniProt O95398 (O95398 whole entry, looked up): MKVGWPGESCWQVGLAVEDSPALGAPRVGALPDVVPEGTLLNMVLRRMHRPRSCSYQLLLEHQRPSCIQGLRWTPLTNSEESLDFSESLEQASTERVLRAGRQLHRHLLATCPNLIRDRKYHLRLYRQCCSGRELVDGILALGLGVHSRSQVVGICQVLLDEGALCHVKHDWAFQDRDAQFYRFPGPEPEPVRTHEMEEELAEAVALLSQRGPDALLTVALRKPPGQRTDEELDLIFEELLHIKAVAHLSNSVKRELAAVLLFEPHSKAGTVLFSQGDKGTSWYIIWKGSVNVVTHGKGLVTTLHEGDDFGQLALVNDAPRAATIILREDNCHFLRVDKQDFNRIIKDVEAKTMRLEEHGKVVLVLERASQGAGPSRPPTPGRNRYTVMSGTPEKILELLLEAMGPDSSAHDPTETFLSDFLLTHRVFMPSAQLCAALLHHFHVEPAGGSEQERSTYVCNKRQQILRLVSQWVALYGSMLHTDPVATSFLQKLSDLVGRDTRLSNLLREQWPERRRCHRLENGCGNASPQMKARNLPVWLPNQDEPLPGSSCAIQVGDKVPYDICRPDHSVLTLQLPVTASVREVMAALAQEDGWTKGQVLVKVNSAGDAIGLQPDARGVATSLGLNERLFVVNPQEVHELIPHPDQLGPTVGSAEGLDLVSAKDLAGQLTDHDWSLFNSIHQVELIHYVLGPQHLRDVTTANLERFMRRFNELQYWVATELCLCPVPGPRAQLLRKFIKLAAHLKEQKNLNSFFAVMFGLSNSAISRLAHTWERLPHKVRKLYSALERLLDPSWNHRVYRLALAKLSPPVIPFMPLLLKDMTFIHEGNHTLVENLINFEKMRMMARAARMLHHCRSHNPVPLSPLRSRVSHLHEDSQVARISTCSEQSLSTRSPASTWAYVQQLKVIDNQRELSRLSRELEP

Row | Structure (SMILES) | activity change, negative = inhibition | Potency
1 | C=C[C@H]1CN2CC[C@H]1C[C@@H]2[C@@H](O)c1ccnc2ccccc12 | inactive: 8.42% | 
2 | CCN(CC)C(=O)/C(Cl)=C(\C)OP(=O)(OC)OC | inactive: 20.2% | 
3 | Nc1ncnc2c1ncn2[C@@H]1O[C@H](COP(=O)(O)CP(=O)(O)O)[C@@H](O)[C@H]1O | inactive: 18.7% | 
4 | C=CCN=C=S | inactive: 14.8% | 
5 | CN(N=O)c1ccc(O)c(O)c1 | inactive: -8.92% [at 75.8 µM] | 
6 | CCN1C[C@]2(C)CC[C@H](O)[C@@]34C5C[C@@H]6[C@@H](OC)C[C@@](O)(C5[C@H]6O)[C@@H](CC23)[C@@H]14 (stereo partly drawn) | inactive | 
7 | CC[C@H](O)C(C[C@H](C)N(C)C)(c1ccccc1)c1ccccc1 | inactive: 40.7% [at 320 µM] | 
8 | CCOC(=O)[C@]12Cc3cc(Cl)ccc3[C@H]1N(Cc1ccccc1)C(=O)c1ccccc12 | inactive: -13.3% | 
9 | c1cc2c(cc1[C@H]1OC[C@@H]3[C@H]1CO[C@H]3c1ccc3c(c1)OCO3)OCO2 | inactive: -0.359% | 
10 | CSc1nc(NC(C)C)nc(NC(C)C)n1 | inactive: 3.33% | 
11 | CCN1C[C@]2(COC)C(O)C[C@H](OC)[C@@]34C5C[C@]6(O)C(OC)C(O)[C@](OC(C)=O)(C5C6OC(=O)c5ccccc5)C(C(OC)C23)C14 (stereo partly drawn) | inactive: 10.2% | 
12 | CCCN1CCC[C@@H]2Cc3nc(N)ncc3C[C@H]21 | inactive | 
13 | CCN[C@@H](C)Cc1ccccc1 | inactive: 31.8% [at 320 µM] | 
14 | OCC1CCCN2CCCCC12 (stereo not drawn) | inactive: 12.6% | 
15 | COc1cc(CC(C)N)cc2c1OCO2 (stereo not drawn) | inactive: -1.66% [at 320 µM] | 
16 | CCC(=O)OC1CCC2C3CCC4=CC(=O)CC[C@@]4(C)C3CC[C@]12C (stereo partly drawn) | inactive: 1.82% | 
17 | C=CCN1C[C@H](C)N([C@H](c2ccc(C(=O)N(CC)CC)cc2)c2cccc(O)c2)C[C@H]1C | inactive: 3.36% | 
18 | C=CCN1C[C@H](C)N([C@H](c2ccc(C(=O)N(CC)CC)cc2)c2cccc(OC)c2)C[C@H]1C | inactive | 
19 | c1cc2c(cc1C1OC[C@@H]3C(c4ccc5c(c4)OCO5)OCC13)OCO2 (stereo partly drawn) | inactive: 9.58% | 
20 | O=C(O)c1ccc(NC(=O)N2C[C@H]3C[C@@H](C2)c2cccc(=O)n2C3)cc1 | inactive: 3.8% | 
21 | CCCCCCC[n+]1ccc(-c2cc[n+](CCCCCCC)cc2)cc1 | inactive: 3.21% | 
22 | OC1CCCCC1N1CCC(c2ccccc2)CC1 (stereo not drawn) | inactive | 
23 | CC(Cc1ccc(OCC(=O)O)cc1)NCC(O)c1cccc(Cl)c1 (stereo not drawn) | inactive | 

Row | Structure (SMILES) | activity change, negative = inhibition | Potency
24 | CC(C)=CCOc1c2occc2cc2ccc(=O)oc12 | inactive | 
25 | NC(=O)c1ccc(N)nc1 | inactive: 16.1% | 
26 | N[C@@H](Cc1ccc(N(CCCl)CCCl)cc1)C(=O)O | inactive: 20.6% | 
27 | CC1=CC(=O)c2c(O)cccc2C1=O | inactive: -10.8% | 
28 | COC(=O)/C(C)=C\CC12OC(C)(C)C3CC(C=C4C(=O)c5c(OC)c6c(c(CC=C(C)C)c5OC431)OC(C)(CCC=C(C)C)C=C6)C2=O (stereo not drawn) | inactive: 5.89% | 
29 | CC(C)NC(=O)N1CCCC2(CCN(C(=O)Oc3ccccc3)CC2)C1 | inactive: 12.4% | 
30 | CC(C)N(CCC(C(N)=O)(c1ccccc1)c1ccccn1)C(C)C (stereo not drawn) | inactive | 
31 | O=[N+]([O-])/C=C/c1ccc2c(c1)OCO2 | inactive: 11.9% [at 75.8 µM] | 
32 | COP(N)(=O)SC (stereo not drawn) | inactive: -10.9% | 
33 | CCC12CCCN3CCC4(c5ccc(OC)c(O)c5N(C(C)=O)C4CC1)C32 (stereo not drawn) | inactive: 12.8% | 
34 | CO[C@H]1[C@@H](O)C[C@H](O[C@H]2[C@@H](O)C[C@H](O[C@H]3[C@@H](O)C[C@H](O[C@H]4CC[C@@]5(C)[C@H](CC[C@@H]6[C@@H]5C[C@@H](O)[C@]5(C)[C@@H](C7=CC(=O)OC7)CC[C@]65O)C4)O[C@@H]3C)O[C@@H]2C)O[C@@H]1C | inactive: -8.83% | 
35 | COC(=O)c1ccccc1C(=O)OC | inactive: 24.4% | 
36 | N#Cc1ccc(CN2CC[C@@]3(CCCNC3)C2)cc1 | inactive: 3.54% | 
37 | Clc1ccc(C2CC3CCC2N3)cn1 (stereo not drawn) | inactive | 
38 | C[C@]12CCC(=O)C=C1CC[C@@H]1[C@H]3CC[C@](C)(O)[C@@]3(C)CC[C@@H]12 | inactive: 19.8% [at 320 µM] | 
39 | C[C@@H]1[C@@H]2Cc3ccc(O)cc3[C@@]1(C)CCN2CC1CC1 | inactive: -8.52% [at 75.8 µM] | 
40 | CCN(CC)CCO[C@H]1CC[C@@]2(C)C(=CC[C@@H]3[C@H]2CC[C@]2(C)C(=O)CC[C@H]32)C1 | inactive: -12.1% | 
41 | NCC(=O)c1ccc(Br)cc1 | inactive: -14.6% | 
42 | Cc1ccc(-c2nc3ccc(C)cn3c2CC(=O)N(C)C)cc1 | inactive: 16.5% | 
43 | Nc1nc(N)nc(NC2CC2)n1 | inactive: -8.79% | 
44 | CN(C)CCN(C)CCc1ccc(Cl)c(Cl)c1 | inactive | 
45 | Nc1ccc(N=Nc2ccccc2)cc1 | inactive: 6.31% [at 320 µM] | 
46 | CCC12C=CCN3CCC4(c5ccc(OC)cc5N(C)C4[C@@](O)(C(=O)OC)C1OC(C)=O)C32 (stereo partly drawn) | inactive: 12.6% | 

Row | Structure (SMILES) | activity change, negative = inhibition | Potency
47 | CN[C@]1(c2ccccc2Cl)CCCCC1=O | inactive: 17.8% | 
48 | C[C@H](N)CN1CCc2ccc(Br)cc21 | inactive: 2.88% [at 75.8 µM] | 
49 | CC(=O)C1=C(O)C2C3c4c[nH]c5cccc(c45)CC3C(C)(C)N2C1=O (stereo not drawn) | inactive: 21.7% | 
50 | CN1CCc2cc(Cl)c(O)cc2[C@H]2c3ccccc3CC[C@@H]21 | inactive: 15.6% | 
51 | Cc1ccccc1-n1c(C)nc2ccccc2c1=O | inactive | 
52 | C[C@@]12CCC(OS(=O)(=O)O)C[C@@H]1CCC1C2CC[C@]2(C)C(=O)CCC12 (stereo partly drawn) | inactive: 16.8% | 
53 | NCCc1ccc(S(=O)(=O)F)cc1 | inactive: -12.2% [at 75.8 µM] | 
54 | C[C@H]1O[C@H](O[C@H]2[C@H](O)[C@@H](O)[C@@H](O)[C@H](O)[C@@H]2O)[C@@H](N)C[C@@H]1NC(=N)C(=O)O | inactive: 18.6% | 
55 | CCCCCCCCCCCCCCCCOC[C@@H](COP(=O)([O-])OCC[N+](C)(C)C)OC(C)=O | inactive: 25% [at 15.3 µM] | 
56 | C/C(O)=C(/C#N)C(=O)Nc1cc(Br)ccc1Br | inactive: -5.83% | 
57 | CCN(CC)CCOC(=O)C(C)(c1ccccc1)c1ccccc1 | inactive: 7.07% | 
58 | CNC(=O)O/N=C/C(C)(C)SC | inactive: 16.2% | 
59 | NCC(=O)c1cccc([N+](=O)[O-])c1 | inactive: 8.82% | 
60 | O=[N+]([O-])c1cc(O)c(O)c([N+](=O)[O-])c1 |  | active: 79.4 µM and inactive
61 | CN[C@@H]1C[C@@H](c2ccc(Cl)c(Cl)c2)c2ccccc21 | inactive | 
62 | O=C(O)Cc1cccnc1C(=O)O | inactive | 
63 | C[C@H](N)Cc1cnc[nH]1 | inactive | 
64 | CCC1(c2ccccc2)C(=O)NC(=O)N(C)C1=O (stereo not drawn) | inactive: 8.79% | 
65 | CCCC(C)C1(CC)C(=O)N=C(S)NC1=O (stereo not drawn) | inactive | 
66 | Nc1ccccc1C(=O)O | inactive: 10.3% | 
67 | C=CC[C@]1(O)CC[C@H]2[C@@H]3CCC4=CCCC[C@@H]4[C@H]3CC[C@@]21C | inactive: -4.26% | 
68 | CN(C)C1C(=O)C(C(N)=O)=C(O)[C@@]2(O)C(=O)C3=C(O)c4c(O)cccc4[C@@](C)(O)C3[C@H](O)C12 (stereo partly drawn) | inactive: 9.52% | 
